# Laboratory results: PubChem BioAssay AID463173 (ICCB-Longwood Screening Facility, Harvard Medical School, 2010)
# The whole screen tested about 52,000 compounds, of which about 4,300 (8.3%) were called active. No stated cut-off is given here; in the data, active means survival mostly below about 52% (no sharp cut-off); inactive means mostly above about 56%. The list shows a part of the results.
# System: DeltatarO mutant
# Assay: growth inhibition of S. aureus wild type versus tarO mutant, primary screen, teichoic acid synthesis inhibitors, RN4220, OD600 (AID 463173)
# Conditions: OD600, 18 h, hits give low values, screened at 18.75 µg/mL (by protocol)
row,SMILES,survival
1,CC(C)c1cc(=O)n2[nH]cnc2n1,inactive: 100%
2,Cc1cc(C)c2cc(C3C(C#N)=C(N)OC4=C3C(=O)CC(C)(C)C4)c(=O)[nH]c2c1 (centres undefined),inactive: 120%
3,COc1cccc(-c2nc(CS(=O)(=O)CC(=O)NCCCc3ccccc3)c(C)o2)c1,inactive: 79%
4,CCN(CC)c1ccc(NC(=O)c2sc3nc(-c4ccccc4)cn3c2C)cc1,inactive: 97%
5,Cc1nc(-c2ccc(F)cc2)sc1CCNC(=O)C(=O)Nc1ccc2c(c1)OCO2,inactive: 95%
6,CCCn1c2ccccc2c2cnn(CC(=O)NCCc3cc(OC)ccc3OC)c(=O)c21,inactive: 89%
7,CCOC(=O)c1cccc(NC(=O)NCc2ccc3c(c2)CCN3C(=O)CC)c1,inactive: 67%
8,COc1ccc(CC(=O)NCCc2csc(-c3cccc(F)c3)n2)cc1OC,inactive: 80%
9,Cc1ccc(C)c(NC(=O)Cn2c(=O)n(Cc3ccco3)c(=O)c3ccc(C(=O)NC4CCCC4)cc32)c1,inactive: 95%
10,Cc1ccc(S(=O)(=O)Nc2cc3c(C(=O)OCc4ccccc4)c(C)oc3c3ccccc23)cc1,inactive: 65%
11,CCOC(=O)c1ccccc1NC(=O)c1sc2ncn(CC)c(=O)c2c1C,inactive: 68%
12,O=C(Cn1c(SCCOc2ccccc2Cl)nc2ccccc21)N1CCCCC1,active: 34%
13,COCCNC(=O)c1c[nH]c2ccccc2c1=O,inactive: 81%
14,CCCc1cc(=O)[nH]c(SCc2nc(-c3ccc(OC)cc3)no2)n1,inactive: 92%
15,Cc1ccccc1NC(=O)Cn1c(=O)n(Cc2ccco2)c(=O)c2cccnc21,inactive: 78%
16,Cc1ccc(-c2cc(C(=O)NCCc3ccccc3)c3ccccc3n2)cc1C,inactive: 88%
17,O=C(NCc1ccc(F)cc1)c1cccc(N2CCCS2(=O)=O)c1,inactive: 94%
18,O=C(NCCc1ccccc1)c1cc(-c2ccccc2)nc2n[nH]c(-c3ccccc3)c12,inactive: 55%
19,CN(C)c1ccc(/C=C(\C#N)c2nc3ccccc3c(=O)[nH]2)cc1,inactive: 69%
20,CN(C(=S)S)C1CCS(=O)(=O)C1 (centres undefined),inactive: 95%
21,CCN1CCN(CC2CCCCC2)CC1,inactive: 90%
22,CC(C)c1ccc(NC(=O)CNC(=O)Cn2ccc3ccccc3c2=O)cc1,inactive: 62%
23,O=C(c1ccc(CSc2nc3ccncc3n2Cc2ccccc2F)cc1)N1CCCCC1,inactive: 76%

row,SMILES,survival
1,CCOc1ccc(NC(=O)NCCCN2CCN(c3ccc(OC)cc3)CC2)cc1,inactive: 94%
2,CCOc1ccccc1Nc1sc(C(=O)c2ccc(Cl)cc2)c(N)c1C#N,inactive: 94%
3,CCC(C)NS(=O)(=O)c1ccc(S(=O)(=O)N(Cc2ccc(C)o2)C2CCCC2)cc1 (centres undefined),inactive: 88%
4,Fc1ccc(C2=NC(c3cccc(C(F)(F)F)c3)=Nc3ccccc3N2)cc1,inactive: 75%
5,O=c1[nH]ncc(NCCN2CCOCC2)c1Cl,inactive: 101%
6,CCC(=O)N1CCc2cc(S(=O)(=O)CCC(=O)N(C)c3ccc(OC)cc3)ccc21,inactive: 90%
7,Cc1cc(Nc2cccc(Cl)c2)nc2ccc(NC(=O)c3ccc(F)cc3Cl)cc12,inactive: 102%
8,O=C(Nc1ccccc1C(=O)OCc1cc(=O)n2ccsc2n1)c1cccc(F)c1,inactive: 109%
9,Cc1ccc2nc(/C(C#N)=C/c3ccc(-c4ccc(F)cc4F)o3)[nH]c2c1,active: 11%
10,COc1cc2c(cc1OC)C(c1cc3cc4c(cc3[nH]c1=O)OCO4)N(C(=O)C1CCC1)CC2 (centres undefined),inactive: 97%
11,CCC1(CC)Cc2ccccc2C(=C(C#N)C#N)N1,inactive: 86%
12,CC1CCCN(S(=O)(=O)c2ccc(S(=O)(=O)N(Cc3cccs3)Cc3cccs3)cc2)C1 (centres undefined),inactive: 100%
13,Cc1ccc(Cl)cc1NC(=O)C1CCCN(S(=O)(=O)c2c(C)noc2/C=C/N(C)C)C1 (centres undefined),inactive: 51%
14,COC(=O)c1c(NC(=O)CCCOc2ccccc2)sc2c1CCC(C)C2 (centres undefined),active: 2%
15,O=C(CCC1N=C2c3ccccc3N=C(SCc3cccc(Cl)c3)N2C1=O)NCc1cccs1 (centres undefined),inactive: 86%
16,COc1cccc(C(=O)N(Cc2cccc(Cl)c2)Cc2ccco2)c1,inactive: 68%
17,CC(C)(C)c1ccc(OCC(=O)Nc2c(C(=O)c3ccc(F)cc3)oc3ccccc23)cc1,inactive: 99%
18,CSc1cccc(NC(=O)c2ccc3c(c2)c(C)c(C)n3Cc2ccc(F)cc2)c1,inactive: 73%
19,COCCN1C(=O)C2C3c4ccccc4C(c4ccccc43)C2C1=O (centres undefined),inactive: 96%
20,CC(C)NS(=O)(=O)c1ccc(OCC(=O)N2CCN(c3ccccc3F)CC2)cc1,inactive: 81%
21,Cc1cc(C)c2c(CC(=O)Nc3nnc(CC(C)C)s3)coc2c1,inactive: 93%
22,COc1ccc(CCCc2nnc(SCC(=O)Nc3ccc(C)c(C)c3)o2)cc1,inactive: 77%
23,CCc1ccc(S(=O)(=O)c2cn(C)c3cc(N4CCN(CC)CC4)c(F)cc3c2=O)cc1,inactive: 75%

row,SMILES,survival
1,O=C(c1ccc(CS(=O)c2ccccc2Cl)o1)N1CCN(c2ccccc2F)CC1 (centres undefined),inactive: 84%
2,O=S1(=O)N=C(Nc2cccc(C(F)(F)F)c2)c2ccccc21,inactive: 53%
3,COc1ccccc1-c1c(C)nn2c(C(F)(F)F)cc(-c3ccccc3)nc12,inactive: 41%
4,Cc1ccc(CN2CCC(CNC(=O)Nc3c(C)cccc3C)C2)cc1 (centres undefined),inactive: 57%
5,COc1cc2nc(SCc3ccc(F)cc3)n3nc(CCn4c(C)nc5ccccc54)nc3c2cc1OC,inactive: 82%
6,CCOc1ccc(S(=O)(=O)N(CC(=O)NCCSCc2ccccc2)c2ccccc2)cc1,inactive: 112%
7,CCOc1ccccc1NC(=O)N1CCN(Cc2cc(=O)n3nc(-c4ccc(C)cc4)sc3n2)CC1,inactive: 67%
8,Cc1ccc(NC(=O)Cn2c(=O)nc(-c3ccccc3F)c3cc(Cl)ccc32)c(Br)c1,inactive: 79%
9,COc1ccc2c(c1)N(C)/C(=C1/SC(=S)N(C)C1=O)S2,inactive: 74%
10,CCC(C)n1c(=N)c(S(=O)(=O)c2ccccc2)cc2c(=O)n3ccccc3nc21 (centres undefined),inactive: 69%
11,Cc1nn(C)c2c1c(-c1ccccc1)cc(=O)n2CC(=O)NC(C)(C)C,inactive: 113%
12,COc1ccc(C)cc1NC(=O)COCc1cc(-c2ccc(F)cc2)on1,inactive: 105%
13,COC(=O)CC(=O)CSc1nc(C)cc(C)c1C#N,inactive: 80%
14,Cc1ccc(N2CCN(S(=O)(=O)c3c(C)[nH]c(=O)[nH]c3=O)CC2C)cc1 (centres undefined),inactive: 95%
15,Cc1nn(Cc2noc(C(=O)NC(C)c3ccccc3)n2)c(C)c1Br (centres undefined),inactive: 69%
16,COc1cc(Cl)c(C)cc1NC(=O)Cn1cc(S(=O)(=O)N2CCC(C)CC2)c2ccccc2c1=O,inactive: 117%
17,CCOC(=O)c1cc(-c2ccccc2)n(CC(=O)Nc2ccc(CC)cc2)c1C,inactive: 101%
18,CCCN(CCC)c1nn2c(=O)c(C(=O)NCc3cc(Br)ccc3OC)cnc2s1,inactive: 84%
19,Cc1ccc(CNC(=O)CCS(=O)(=O)c2cc3c(cc2C)NC(=O)CO3)cc1,inactive: 82%
20,O=C(O)CC1S/C(=N/N=C2CCCC2)NC1=O (centres undefined),inactive: 80%
21,O=C(CSc1nc2c(oc3ccccc32)c(=O)n1Cc1ccco1)Nc1ccccc1,inactive: 114%
22,CCCSC1=NC2(CCN(C(=O)NC3CCCCC3)CC2)N=C1c1ccc(Cl)cc1,inactive: 85%
23,Cc1ccc(CN2CCCN(Cc3c(C)cc(C)cc3C)S2(=O)=O)cc1,inactive: 91%

row,SMILES,survival
1,Cc1cccc(CSc2nc(-c3cccc(C)c3)nc3c2Cc2c(CO)cnc(C)c2O3)c1,inactive: 52%
2,CC(C)c1ccc(NC(=O)CSC2=Nc3ccccc3C3=NC(CCC(=O)NCc4ccco4)C(=O)N23)cc1 (centres undefined),inactive: 80%
3,COc1ccc(OC)c(CCNC(=O)CCn2c(=O)c3cccn3c3ccc(F)cc32)c1,inactive: 58%
4,Cc1cccc(S(=O)(=O)c2cn(C)c3cc(N4CCN(c5ccc(F)cc5)CC4)c(F)cc3c2=O)c1,inactive: 71%
5,CCc1nnc(SCC(=O)N(CC)c2ccccc2)c2cc3oc(C)cc3n12,inactive: 89%
6,CC(=O)N1CCCc2cc(S(=O)(=O)N3CCC(C(=O)NCc4ccccc4)CC3)ccc21,inactive: 69%
7,Cc1ccc(Cl)cc1N1CCN(C(=O)c2cc(S(=O)(=O)N3CCCC3)c[nH]2)CC1,inactive: 88%
8,CCc1ccc(NC(=O)C2CCCN(S(=O)(=O)c3ccc(F)cc3)C2)cc1 (centres undefined),inactive: 71%
9,CCOC(=O)CNC(c1ccccc1)c1cc(Br)ccc1NC(=O)c1cccc(Cl)c1 (centres undefined),inactive: 61%
10,Cc1ccc(CN2CCSc3ccc(C(=O)Nc4ccc(C)cc4)cc32)cc1,inactive: 105%
11,CCCCNC(=O)c1ccccc1NC(=O)CN(c1ccccc1)S(=O)(=O)N(C)C,inactive: 106%
12,CCN(CC)c1ccc(NC(=O)CNCC2CCCCC2)c(C)c1,inactive: 86%
13,O=C(CSc1nc(=O)n(Cc2ccco2)c2c1CCC2)Nc1ccccc1C(F)(F)F,inactive: 90%
14,Cc1ccc2c(=O)cc(C(=O)Nc3ccc(S(=O)(=O)N4CCCCCC4)cc3)oc2c1,inactive: 106%
15,CN(C)S(=O)(=O)c1ccc2c(c1)nnn2CCNC(=O)Nc1ccc(Cl)cc1,inactive: 79%
16,Cc1ccc(S(=O)(=O)c2nnn3c2nc(NC2CCCCC2)c2sccc23)cc1,inactive: 109%
17,Cc1ccc(Cc2cn3cc(-c4ccccc4)nc3s2)cc1,inactive: 66%
18,Cc1ccc(C)c(Oc2nc3c(c(=O)n(C)c(=O)n3C)n2Cc2ccccc2)c1,active: 32%
19,Cc1ccc(Cn2c(=O)n(Cc3ccco3)c(=O)c3oc4ccccc4c32)cc1,inactive: 110%
20,COc1ccc(S(=O)(=O)NCCNc2nc3cc(C)cc(C)c3cc2C#N)cc1,inactive: 91%
